Here are results for 97 molecules from paper PMC6919601, “Identification of Plasmodium dipeptidyl aminopeptidase allosteric inhibitors by high throughput screening” (PLoS ONE, 2019).

Screen size: about 110,000 compounds; about 230 (0.21%) showed an effect of 50% or more. The list shows a part of the results.
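Also: 30 min substrate incubation versus DMSO and 10 µM JCP410 controls.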

The target of the assay is DPAP1 (Plasmodium falciparum, UniProt Q8IIJ9). The experiment in a line: primary screen, percent inhibition; read by cleavage of a fluorogenic dipeptide substrate; higher = more effect of the substance. Details: species or system P. falciparum D10 trophozoite lysates; single well.
Chain of DPAP1 (Q8IIJ9 whole entry, looked up): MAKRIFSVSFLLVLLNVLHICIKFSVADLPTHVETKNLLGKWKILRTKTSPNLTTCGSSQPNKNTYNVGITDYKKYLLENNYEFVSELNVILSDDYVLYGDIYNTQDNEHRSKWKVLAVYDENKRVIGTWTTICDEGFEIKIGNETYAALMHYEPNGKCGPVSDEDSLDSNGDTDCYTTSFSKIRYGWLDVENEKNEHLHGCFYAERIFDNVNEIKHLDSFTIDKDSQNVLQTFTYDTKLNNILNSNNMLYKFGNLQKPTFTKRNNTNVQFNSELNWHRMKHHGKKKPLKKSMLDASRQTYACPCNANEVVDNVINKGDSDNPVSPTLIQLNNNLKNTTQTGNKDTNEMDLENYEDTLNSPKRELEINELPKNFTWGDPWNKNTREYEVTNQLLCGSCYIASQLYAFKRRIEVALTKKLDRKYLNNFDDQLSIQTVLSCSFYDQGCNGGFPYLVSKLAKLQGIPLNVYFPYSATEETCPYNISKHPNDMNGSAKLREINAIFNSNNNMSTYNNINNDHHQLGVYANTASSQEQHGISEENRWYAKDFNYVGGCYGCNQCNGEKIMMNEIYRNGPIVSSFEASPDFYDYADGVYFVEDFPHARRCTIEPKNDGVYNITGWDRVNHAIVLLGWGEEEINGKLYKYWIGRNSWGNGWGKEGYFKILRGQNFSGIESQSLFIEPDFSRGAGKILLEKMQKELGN
Turning to `COc1ccc(/C=c2/[nH]c(=O)/c(=C\c3ccc(OC)c(OC)c3)[nH]c2=O)cc1OC`, the “% Inhibition @ 10 uM” value was -0.736%. In the case of `CN(C)c1ccc(CNC(C)(C)CO)cc1`, the “% Inhibition @ 10 uM” value is -5.26%. `CCOc1c(Br)cc(/C=C(\C#N)c2nc3cc(Br)cnc3[nH]2)cc1OC`: the “% Inhibition @ 10 uM” value is on record as -1.26%. Then `CCn1c(C(=O)N2CCC(C(=O)NCCCN3CCOCC3)CC2)cc2sccc21`, with -1.53%; and `Cc1ccc(C)c(Cn2c3ccccc3c3cnn(CC(=O)NCCN4CCCCC4C)c(=O)c32)c1` (stereo not shown), with 1.8%; and `O=CNc1c(O)c2ccccc2oc1=O`, with 3.99%. As for `O=[N+]([O-])c1ccc(O)c(CN2CCCCCCC2)c1`, the “% Inhibition @ 10 uM” value is recorded as -1.64%. As to `CNC(=O)/C=C1\NC(C)(C)Cc2c1ccc1ccccc21`, the “% Inhibition @ 10 uM” value is reported as 3.47%. For the molecule `CCCn1c(CN2CCC(C)CC2)nc2c1c(=O)n(C)c(=O)n2C`, the “% Inhibition @ 10 uM” value is -4.14%. Take `Cc1ccc(CNc2ccc(CNc3nc[nH]n3)cc2)cc1`: the “% Inhibition @ 10 uM” value was 1.84%. As to `N#CCc1ccc(NC(=O)c2cccs2)cc1`, the “% Inhibition @ 10 uM” value is on record as -0.303%. Turning to `Cc1ccc(C(=O)C2=C(O)C(=O)N(CCOCCO)C2c2cccs2)cc1` (stereo not shown), the “% Inhibition @ 10 uM” value is -6.75%. The result for `CCOC(=O)N1CCN(C(=O)c2cc3c(C)nc4ccccc4c3o2)CC1` reads -0.0115%; that for `CCCCN(CC)CCCNC(=O)C1c2ccccc2C(=O)N(C2CCCC2)C1c1cccs1` (stereo not shown), -4.99%; that for `O=C(Nc1ccccc1Cl)c1ccc([N+](=O)[O-])cc1Cl`, -0.546%.

In the case of `CCOC(=O)c1cnc2sc(C(=O)OCC)c(C)c2c1O`, the “% Inhibition @ 10 uM” value came to 0.98%. The result for `COCc1cc(C)nc(SCc2ccc(Br)cc2)c1C#N` reads 4.67%. Then `Cc1c(Br)c(C(=O)Nc2cnn(Cc3c(F)cccc3Cl)c2)nn1C`, with 3.8%; and `Cc1cc(C)n(CC2CC(=O)N(c3ccc(Br)cc3)C2=O)n1` (stereo not shown), with -0.473%; and `CCNc1nc(NCC)nc(Nc2nc(C)c(C(=O)OCC)s2)n1`, with 8.16%.

For the molecule `CC1CCCC(NC(=O)CN(C)S(=O)(=O)c2c[nH]cn2)C1C` (stereo not shown), the “% Inhibition @ 10 uM” value was -0.0309%. Take `C=CCNC(=O)CN(c1ccc(OC)cc1OC)S(C)(=O)=O`: the “% Inhibition @ 10 uM” value is recorded as 1.52%.

For `CSc1ccc(C2c3c(-c4ccccc4O)n[nH]c3C(=O)N2CC2CCCO2)cc1` (stereo not shown), the “% Inhibition @ 10 uM” value was -4.95%.

On to `O=C(CCn1c(SCc2ccc(F)cc2)nc2c(sc3ccccc32)c1=O)NCC1CCCO1` (stereo not shown), for which the “% Inhibition @ 10 uM” value stood at 0.66%. With `COc1cc2c(cc1OC)CC(C)(C)N=C2`, the “% Inhibition @ 10 uM” value is listed as -1.22%.

In the case of `Cc1nc2nc(C)c(NS(=O)(=O)c3ccc(F)c(C)c3)c(O)n2n1`, the “% Inhibition @ 10 uM” value amounted to 1.49%. Regarding `Nc1nc(-c2ccc(Cl)cc2Cl)cs1`, the “% Inhibition @ 10 uM” value is recorded as -3.38%. For the molecule `CC(C)(C)c1sc(N)nc1-c1ccccc1`, the “% Inhibition @ 10 uM” value is given as -2.15%. Then `Cc1cc(O)c(C2=Nc3cc(C(F)(F)F)ccc3SC(c3cccs3)C2)c(=O)o1` (stereo not shown), with -0.693%; and `COc1ccc(C2CC(C(F)(F)F)n3ncc(C(=O)NCc4ccccc4)c3N2)cc1` (stereo not shown), with 2.79%. Then `CC1CCc2c(sc3ncn(Cc4ccc(Cl)cc4)c(=O)c23)C1` (stereo not shown), with -16.1%; and `Clc1ccccc1CNc1nc2ccccc2c2nc(-c3ccncc3)nn12`, with -0.692%; and `CCSc1oc(-c2ccccc2)nc1S(=O)(=O)c1ccc(C)cc1`, with -2.74%. The result for `COc1ccccc1NC(=O)C1=C(C)N=C2CC(C)(C)CC(O)=C2C1c1ccc(C)cc1` (stereo not shown) reads 1.35%; that for `CCOC(=O)C1=CN(Cc2ccc(OC)c(OC)c2)C=C(C(=O)OCC)C1c1ccc(OC)c(O)c1`, -5.05%; that for `Cc1ccc2[nH]c(C)c(/C=C3/C(=N)N4C(=NC3=O)SN=C4S(C)(=O)=O)c2c1`, 1.85%. On to `O=C(/C=C/c1ccccc1)C1=C(O)C(=O)OC12C(=O)c1ccccc1C2=O`, for which the “% Inhibition @ 10 uM” value was determined as 1.97%. `O=C1c2oc3ccccc3c(=O)c2C(c2ccc(OCc3ccccc3)cc2)N1c1nccs1` (stereo not shown): the “% Inhibition @ 10 uM” value is given as -0.828%.

Consider `CCO/C(O)=C1/C(C)=Nc2ncnn2C1c1ccc(OCc2ccccc2)cc1` (stereo not shown), for which the “% Inhibition @ 10 uM” value is given as -3.98%. In the case of `COc1ccc(C2CC(c3ccccc3O)=NN2)cc1` (stereo not shown), the “% Inhibition @ 10 uM” value is 1.37%.

`COc1ccc(NC(=O)CN2C(=O)S/C(=C/c3ccc4c(c3)n(C)c(=O)n4C)C2=O)cc1`: the “% Inhibition @ 10 uM” value amounted to 3.01%. Turning to `Cc1ccsc1/C=C1\NC(=O)N(Cc2ccc(Cl)cc2)C1=O`, the “% Inhibition @ 10 uM” value was -5.3%. On to `Cn1c(=O)c2c(nc(SCc3ccccc3F)n2C)n(C)c1=O`, for which the “% Inhibition @ 10 uM” value is -6.37%. Regarding `CN(C)CCCNCC(O)Cn1c2ccc(Cl)cc2c2cc(Cl)ccc21` (stereo not shown), the “% Inhibition @ 10 uM” value is on record as -6.95%. With `CCC(C(=O)N1CCN(c2ccc([N+](=O)[O-])cc2)CC1)c1ccccc1` (stereo not shown), the “% Inhibition @ 10 uM” value was 1.13%. As to `c1ccc2c(c1)ncn2Cc1nnc2sc(-c3ccc4c(c3)OCCO4)nn12`, the “% Inhibition @ 10 uM” value is 45%.

`COc1ccc(CN2CCN(c3ccc(Cl)cc3)CC2)cc1OC`: the “% Inhibition @ 10 uM” value is given as 6.18%. As to `CCOC(=O)N1CCN(c2cc(C)nc3nc(-c4ccc(C(C)(C)C)cc4)nn23)CC1`, the “% Inhibition @ 10 uM” value is on record as 5.54%. Regarding `CC(C)C[C@H](NC(=O)c1ccc(CN2CCN(C)CC2)cc1)C(=O)NCC#N`, the “% Inhibition @ 10 uM” value is -5.64%. On to `COc1ccc(-c2nc(CS(=O)(=O)CC(=O)NCCc3cc(OC)ccc3OC)c(C)o2)cc1`, for which the “% Inhibition @ 10 uM” value was 3.19%.

Consider `O=C(NC1CCCCCC1)C1CCCN1S(=O)(=O)c1ccc(Cl)cc1` (stereo not shown), for which the “% Inhibition @ 10 uM” value came to 4.11%. Consider `CN1CCN(C(=O)C2CCCN(c3ncnc4c3nc3n4CCCCC3)C2)CC1` (stereo not shown), for which the “% Inhibition @ 10 uM” value worked out at 4.83%. For `CC(Oc1cccc(Cl)c1)C(=O)Nc1sc2c(c1C(N)=O)CCCCC2` (stereo not shown), the “% Inhibition @ 10 uM” value is given as 61.2%. As for `CCC(C(=O)NC(C)(C)C)n1nc(C)c2sc3ccccc3c2c1=O` (stereo not shown), the “% Inhibition @ 10 uM” value is -3.93%. For `Cc1ccc(N(CC(=O)NCCSc2ccc(Cl)cc2)S(C)(=O)=O)cc1`, the “% Inhibition @ 10 uM” value was -0.28%.

Turning to `Cc1cc(NC(=O)CSc2nc(-c3ccco3)cc(C(F)(F)F)n2)no1`, the “% Inhibition @ 10 uM” value was -0.318%. The result for `Cc1ccc2onc(CC(=O)N3CCCC3)c2c1` reads 1.79%; that for `O=S(=O)(Nc1ccc(-c2cn3cccnc3n2)cc1)c1ccccc1`, 0.13%; that for `COc1ccc(N2CCN(Cc3ccc(OC)c(Br)c3)CC2)cc1`, -0.969%.

For `O=C(CCc1cn(Cc2ccccc2Cl)c2ccccc12)NC1CC1`, the “% Inhibition @ 10 uM” value is reported as -0.574%. In the case of `CCOc1cc(/C=C2/NC(=O)N(c3ccccc3)C2=O)ccc1OCC(N)=O`, the “% Inhibition @ 10 uM” value turned out to be 1.28%. Take `CCc1ccc(NC(=O)COc2ccccc2)cc1`: the “% Inhibition @ 10 uM” value was 0.993%.

`CCOc1ccc(CCNCc2c(C(=O)O)n(CC)c3cc(C)ccc23)cc1`: the “% Inhibition @ 10 uM” value is recorded as -0.397%. On to `COc1cc(OC)c(OC)cc1/C=C1\CN(C)C/C(=C\c2cc(OC)c(OC)cc2OC)C1=O`, for which the “% Inhibition @ 10 uM” value was determined as 2.59%. Take `COc1cccc(CN2CCN(Cc3ccc(SC)cc3)CC2)c1`: the “% Inhibition @ 10 uM” value came out at 3.04%. On to `CCOC(=O)c1ccc2c(c1)c1c(n2CC)C(=O)CCC1`, for which the “% Inhibition @ 10 uM” value stood at 4.9%. `COc1ccc(C(=O)Nc2nc(-c3nnn(-c4cc(F)ccc4F)c3C)ns2)cc1`: the “% Inhibition @ 10 uM” value is -5.13%. Then `Cc1c(CNCc2ccc3c(c2)OCO3)c(C(=O)O)c(C)n1Cc1ccccc1F`, with -3.67%; and `O=c1oc2cc(O)cc(O)c2c2c1CCC2`, with -4.32%. Take `Clc1cccc(N2CCN(CCc3ccccc3)CC2)c1`: the “% Inhibition @ 10 uM” value is reported as -1.64%. Then `COc1ccc(C(=O)c2ccccn2)cc1`, with 4.22%; and `CCOc1ccc(/C=C2\Sc3ccccc3C2=O)cc1OC`, with 1.01%. Turning to `CCCNC(=O)c1ccc2c(c1)sc1nc(-c3ccc(F)cc3)cn12`, the “% Inhibition @ 10 uM” value was found to be 5.11%.

For the molecule `CCOc1ccccc1-n1nnc(-c2nsc(NC(=O)c3ccccc3)n2)c1C`, the “% Inhibition @ 10 uM” value is -3.2%.

`O=c1oc2ccc(Cl)cc2n1Cc1ccc(Cl)cc1`: the “% Inhibition @ 10 uM” value was 0.687%.

With `Cc1cccnc1NC(=O)Nc1ccccc1Cl`, the “% Inhibition @ 10 uM” value is -6.22%. On to `COc1ccc(S(=O)(=O)N(CC(N)=O)c2cc(C)cc(C)c2)cc1OC`, for which the “% Inhibition @ 10 uM” value was -3.13%.

Consider `O=C(CCCn1sc2ccccc2c1=O)NCc1ccco1`, for which the “% Inhibition @ 10 uM” value is listed as -4.68%. For the molecule `O=C(Nc1cccnc1Cl)c1cc(-c2ccco2)on1`, the “% Inhibition @ 10 uM” value came out at 0.0221%. For `COc1ccc(/N=C2/S/C(=C\c3cc(C)n(C)c3C)C(=O)N2C)cc1`, the “% Inhibition @ 10 uM” value is reported as -4.49%.

As for `Cc1ccc2nc(NC(=O)c3nc(S(=O)(=O)Cc4ccccc4F)ncc3Cl)sc2c1`, the “% Inhibition @ 10 uM” value came out at 4%. `O=C(CSc1nc(-c2ccc(F)cc2)cc(C(F)(F)F)n1)NCCN1CCOCC1`: the “% Inhibition @ 10 uM” value was -2.75%. Then `CCN(CC)c1ncnc2sc(C(=O)N3CCC(Cc4ccccc4)CC3)c(C)c12`, with -0.458%; and `CC[C@@H](C)[C@@H](CS(=O)(=O)N[C@@H](CCc1ccccc1)C(=O)COc1ccc2c(c1)OCO2)NC(=O)OCc1ccccc1`, with -0.778%. Turning to `O=C(O)CCCCc1ccc(C(=O)c2ccccc2)s1`, the “% Inhibition @ 10 uM” value is -1.74%. Consider `CCOC(=O)N1CCN(c2c(NC(CC)Cc3ccccc3)c(=O)c2=O)CC1` (stereo not shown), for which the “% Inhibition @ 10 uM” value is reported as -1.44%. As to `CCN(CC)C(=O)CN(c1ccccc1Cl)S(=O)(=O)c1ccccc1`, the “% Inhibition @ 10 uM” value was 2.53%. For `CC(=O)c1cccc(NC(=O)c2ccc(COc3cccc(Cl)c3)o2)c1`, the “% Inhibition @ 10 uM” value was 0.52%. As for `CC(=O)c1cc2c(cc1NC(=O)c1cccc(C)c1)OCO2`, the “% Inhibition @ 10 uM” value worked out at 0.145%. For `CC1CN(Cc2nc3c(c(=O)n(C)c(=O)n3C)n2Cc2ccc(Cl)cc2Cl)CC(C)O1` (stereo not shown), the “% Inhibition @ 10 uM” value was -2.29%. Consider `CCN(CC)CCCNC(=O)Cn1ncc2c3ccccc3n(Cc3ccc(F)cc3)c2c1=O`, for which the “% Inhibition @ 10 uM” value is -7.1%.

Take `COc1ccc(Br)cc1CNC(=O)C1CCN(S(C)(=O)=O)CC1`: the “% Inhibition @ 10 uM” value is -3.12%.

For the molecule `CCOc1ccc(CCNC(=O)CS(=O)(=O)Cc2nc(-c3ccccc3F)oc2C)cc1`, the “% Inhibition @ 10 uM” value was -0.138%. `O=C(Cn1c(C(=O)O)cc2ccccc21)c1ccccc1`: the “% Inhibition @ 10 uM” value was -1.75%. Take `COc1ccccc1CNC(=O)c1ccc2c(O)nc3c(-c4ccccc4)nnn3c2c1`: the “% Inhibition @ 10 uM” value is given as -3.85%. As for `Cn1c(-c2nonc2NC(=O)c2ccccc2Cl)nc2ccccc21`, the “% Inhibition @ 10 uM” value was found to be 1.35%. As to `CN(C)S(=O)(=O)c1ccc(C(=O)C2=C(O)C(=O)N(CCN3CCCCC3)C2c2ccccc2)cc1` (stereo not shown), the “% Inhibition @ 10 uM” value is on record as -3.45%.
